In all, about 81,000 sequences were measured (“one-hybrid fitness for binding parS DNA”: median about -0.17, highest 2% from about 0.51 on). Some of the results follow.
B1: Caulobacter ParB omega fusion; a variant is named by its letters at X, in order, B8GW30 (parent)
chain: MESVVVGEPGMSEGRRGLGRGLSALLGEVDAAPAQAPGEQLGGSREAPIEILQRNPDQPRRTFREEDLEDLSNSIREKGVLQPILVRPSPDTAGEYQIVAGERAWRAAQRAGLKTVPIMVRELDDLAVLEIGIIENVQRADLNVLEEALSYKVLMEKFERTQENIAQTIGKSXSHVANXMRLLXLPDEVQSYLVSGELTAXHARAIAAAADPVALAKQIIEGGLSVRETEALARKAPNLSAGKSKGGRPPRVKDTDTQALESDLSSVLGLDVSIDHRGSTGTLTITYATLEQLDDLCNRLTRGI

Variants of: B1
Test: one-hybrid fitness for binding parS DNA (scaled: cognate 1, non-cognate 0); higher = stronger binding
Conditions: with parS DNA site
Method in brief: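 Pre- and post-selection plasmids were Illumina-sequenced, three replicate libraries were pooled, and any variant with under 10 reads was removed. The libraries were Caulobacter ParB with four specificity codons randomised, selected in E. coli USO through a HIS3 reporter whose site is 19 bp from the promoter. Cells grew 48 hours at 37°C on M9 without histidine, with 0.1 mM IPTG and 5 mM 3-AT. Fitness is the log change in variant-to-wild-type read ratio, rescaled against cognate and non-cognate.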

Point of comparison: FGGP, “one-hybrid fitness for binding parS DNA” value 0.223. Against it:
- MNLQ — lower, ≤ 0.2
- MART — lower, ≤ 0.2
- QLYF — lower, ≤ 0.2
- LLKS — lower, ≤ 0.2
- ASDL — lower, ≤ 0.2
- KDIG — lower, ≤ 0.2
- ALVN — lower, ≤ 0.2
- QWLH — lower, ≤ 0.2
- LTYT — lower, ≤ 0.2
- QMPA — lower, ≤ 0.2
- ENTW — lower, ≤ 0.2
- HYYI — lower, ≤ 0.2
- FKGR — lower, ≤ 0.2
- LANA — lower, ≤ 0.2
- NDSW — lower, ≤ 0.2
- GCDL — lower, ≤ 0.2
- TLTT — lower, ≤ 0.2
- GPTQ — lower, ≤ 0.2
- THAT — lower, ≤ 0.2
- THPL — lower, ≤ 0.2
- DNLS — lower, ≤ 0.2
- GMVT — lower, ≤ 0.2
- PRAK — lower, ≤ 0.2
- EKEY — higher, 0.273
- AEVS — lower, ≤ 0.2
- LSIV — lower, ≤ 0.2
- LFTS — lower, ≤ 0.2
- WWDG — lower, ≤ 0.2
- TRNN — lower, ≤ 0.2
- RCEN — higher, 0.412
- TQPC — lower, ≤ 0.2
- ISLL — lower, ≤ 0.2
- YNLH — lower, ≤ 0.2
- AAIC — lower, ≤ 0.2
- QNEL — lower, ≤ 0.2
- EVIS — lower, ≤ 0.2
- LATQ — lower, ≤ 0.2
- SMFR — lower, ≤ 0.2
- PFQW — lower, ≤ 0.2
- GSDV — lower, ≤ 0.2
- RSII — lower, ≤ 0.2
- VFDG — lower, ≤ 0.2
- TWNE — lower, ≤ 0.2
- TCDC — lower, ≤ 0.2
- KRLG — lower, ≤ 0.2
- LWNA — lower, ≤ 0.2
- VNTF — lower, ≤ 0.2
- FGNI — lower, ≤ 0.2
- ACMF — lower, ≤ 0.2
- HNNS — lower, ≤ 0.2
- DQLR — lower, ≤ 0.2
- VWAT — lower, ≤ 0.2
- AMEL — lower, ≤ 0.2
- FFST — lower, ≤ 0.2
- AQTY — lower, ≤ 0.2
- STAW — lower, ≤ 0.2
- FGAI — lower, ≤ 0.2
- PDCG — lower, ≤ 0.2
- QAFI — lower, ≤ 0.2
- QPTC — lower, ≤ 0.2
- MSWV — lower, ≤ 0.2
- EALR — lower, ≤ 0.2
- ELTE — lower, ≤ 0.2
- VSEV — lower, ≤ 0.2
- MIFR — lower, ≤ 0.2
- IGQR — lower, ≤ 0.2
- FGRD — lower, ≤ 0.2
- YTHM — lower, ≤ 0.2
- TAIW — lower, ≤ 0.2
- HSTM — lower, ≤ 0.2
- RHSS — higher, 0.912
- LKKI — lower, ≤ 0.2
- EMNS — lower, ≤ 0.2
- LWHC — lower, ≤ 0.2
- QKMT — lower, ≤ 0.2
- SVAN — lower, ≤ 0.2
- AKVT — lower, ≤ 0.2
- VQGW — lower, ≤ 0.2
- LQYT — lower, ≤ 0.2
- MPNS — lower, ≤ 0.2
- KYSW — lower, ≤ 0.2
- RMNS — higher, 0.911
- INNG — lower, ≤ 0.2
- KVYG — lower, ≤ 0.2
- RWKS — higher, 0.961
- KSQT — lower, ≤ 0.2
- QHWG — lower, ≤ 0.2
- HKIG — lower, ≤ 0.2
- SCAG — lower, ≤ 0.2
- DTLY — lower, ≤ 0.2
- YHRL — lower, ≤ 0.2
- KWTN — lower, ≤ 0.2
- DTDY — lower, ≤ 0.2
- VALR — lower, ≤ 0.2
- RHAH — lower, 0.202
- FGTL — lower, ≤ 0.2
- CAWS — lower, ≤ 0.2
- MTWT — lower, ≤ 0.2
- HTCR — lower, ≤ 0.2
- TKTS — lower, ≤ 0.2
- DPLY — lower, ≤ 0.2
- PVYG — lower, ≤ 0.2
- KCAC — lower, ≤ 0.2
- DVVR — lower, ≤ 0.2
- WFST — lower, ≤ 0.2
- RDYE — lower, ≤ 0.2
- FEVF — lower, ≤ 0.2
- CNLS — lower, ≤ 0.2
- DKKT — lower, ≤ 0.2
- TQEV — lower, ≤ 0.2
- HPQI — lower, ≤ 0.2
- GMQC — lower, ≤ 0.2
- HKDC — lower, ≤ 0.2
- ERNY — lower, ≤ 0.2
- RHVL — lower, ≤ 0.2
- GAIA — lower, ≤ 0.2
- HRHH — lower, ≤ 0.2
- RYNG — higher, 0.975
- ANNF — lower, ≤ 0.2
- IDEV — lower, ≤ 0.2
- QFSS — lower, ≤ 0.2
- SEGN — lower, ≤ 0.2
- FRVR — lower, ≤ 0.2
- PHEC — lower, ≤ 0.2
- QNYA — lower, ≤ 0.2
- RVGR — lower, ≤ 0.2
- PWMF — lower, ≤ 0.2
- AIHN — lower, ≤ 0.2
- SGPL — lower, ≤ 0.2
- TPTQ — lower, ≤ 0.2
- MAIR — lower, ≤ 0.2
- TAHF — lower, ≤ 0.2
- RQTK — lower, ≤ 0.2
- QPPV — lower, ≤ 0.2
- PPHK — lower, ≤ 0.2
- TINI — lower, ≤ 0.2
- PRPQ — lower, ≤ 0.2
- WYSS — lower, ≤ 0.2
- RDPG — lower, ≤ 0.2
- SFGT — lower, ≤ 0.2
- PMWT — lower, ≤ 0.2
- AHPW — lower, ≤ 0.2
- PLDN — lower, ≤ 0.2
- TRIH — lower, ≤ 0.2
- GHMG — lower, ≤ 0.2
- LLMW — lower, ≤ 0.2
- TDHV — lower, ≤ 0.2
- EPHT — lower, ≤ 0.2
- QYLN — lower, ≤ 0.2
- RFCS — higher, 1
- RAVH — lower, 0.202
- MNHT — lower, ≤ 0.2
